Where a name gives a salt, the structure may show the parent alone. Whole data set: some 1,900 compounds, median “cell viability of compound + 1 nM pemigatinib relative to pemigatinib-only (DMSO) wells” near 0.95, cut for the lowest 2% near 0.22. The list shows a part of the results.
tested on: PDC-DUC18828; assay: cell viability of compound + 1 nM pemigatinib relative to pemigatinib-only (DMSO) wells (fraction); PDC-DUC18828 is a patient-derived cholangiocarcinoma cell line; higher = less growth inhibition; details: first compound 1 µM; pemigatinib concentration 1 nM; 72 h
Method: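 Selleck Bioactive library screen in the patient-derived FGFR2 fusion-positive ICC cell line PDC-DUC18828 (500 cells/well). Each compound was tested at 1 uM with 1 nM pemigatinib, in triplicate, for 72 h. Viability was read by CellTiter-Glo and normalised to plate DMSO controls. Value is the paper's averaged normalised viability.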

| Structure (SMILES) | cell viability |
| --- | --- |
| COc1ccc(-c2cc(=O)c3c(OC)c(OC)c(OC)c(OC)c3o2)cc1OC [Nobiletin] + CCN1C(=O)N(c2c(F)c(OC)cc(OC)c2F)Cc2cnc3[nH]c(CN4CCOCC4)cc3c21 [pemigatinib] | 0.904 |
| CCOC(=O)N1c2ccc(C(F)(F)F)cc2[C@@H](N(Cc2cc(C(F)(F)F)cc(C(F)(F)F)c2)C(=O)OC)C[C@H]1CC [Torcetrapib] + CCN1C(=O)N(c2c(F)c(OC)cc(OC)c2F)Cc2cnc3[nH]c(CN4CCOCC4)cc3c21 [pemigatinib] | 0.968 |
| Cc1ccc(C(=O)Nc2cccc(C(F)(F)F)c2)cc1Nc1nc(-c2cccnc2)nc2c1cnn2C + CCN1C(=O)N(c2c(F)c(OC)cc(OC)c2F)Cc2cnc3[nH]c(CN4CCOCC4)cc3c21 [pemigatinib] | 0.908 |
| O=c1cc[nH]c(=O)[nH]1 [Uracil] + CCN1C(=O)N(c2c(F)c(OC)cc(OC)c2F)Cc2cnc3[nH]c(CN4CCOCC4)cc3c21 [pemigatinib] | 1.02 |
| Cc1cc(C)nc(NS(=O)(=O)c2ccc(NC(=S)NC(=O)COc3ccc(Br)cc3Cl)cc2)n1 + CCN1C(=O)N(c2c(F)c(OC)cc(OC)c2F)Cc2cnc3[nH]c(CN4CCOCC4)cc3c21 [pemigatinib] | 1.05 |
| O=C(Nc1cccnc1)N1CCC(Cc2cccc(Oc3ccc(C(F)(F)F)cn3)c2)CC1 + CCN1C(=O)N(c2c(F)c(OC)cc(OC)c2F)Cc2cnc3[nH]c(CN4CCOCC4)cc3c21 [pemigatinib] | 0.918 |
| Cc1cccc(-c2nn3c(c2-c2ccnc4ccc(C(N)=O)cc24)CCC3)n1 + CCN1C(=O)N(c2c(F)c(OC)cc(OC)c2F)Cc2cnc3[nH]c(CN4CCOCC4)cc3c21 [pemigatinib] | 1.03 |
| CC(C)c1nc(CN(C)C(=O)N[C@@H](CCN2CCOCC2)C(=O)N[C@H](CC[C@H](Cc2ccccc2)NC(=O)OCc2cncs2)Cc2ccccc2)cs1 [Cobicistat (GS-9350)] + CCN1C(=O)N(c2c(F)c(OC)cc(OC)c2F)Cc2cnc3[nH]c(CN4CCOCC4)cc3c21 [pemigatinib] | 0.913 |
| O=C(O)c1ccc(C=C2SC(=S)N(c3cccc(C(F)(F)F)c3)C2=O)cc1 + CCN1C(=O)N(c2c(F)c(OC)cc(OC)c2F)Cc2cnc3[nH]c(CN4CCOCC4)cc3c21 [pemigatinib] | 0.962 |
| COc1ccc(-c2cc(=O)c3c(OC)c(OC)c(OC)c(OC)c3o2)cc1 [Tangeretin] + CCN1C(=O)N(c2c(F)c(OC)cc(OC)c2F)Cc2cnc3[nH]c(CN4CCOCC4)cc3c21 [pemigatinib] | 0.928 |
| Cc1ccc(CNc2ncnc3ccc(-c4ccc(CO)o4)cc23)o1 + CCN1C(=O)N(c2c(F)c(OC)cc(OC)c2F)Cc2cnc3[nH]c(CN4CCOCC4)cc3c21 [pemigatinib] | 0.933 |
| CN1C(C(=O)Nc2ccccn2)=C(O)c2sc(Cl)cc2S1(=O)=O [Lornoxicam] + CCN1C(=O)N(c2c(F)c(OC)cc(OC)c2F)Cc2cnc3[nH]c(CN4CCOCC4)cc3c21 [pemigatinib] | 1.12 |
| CC12CC3CC(C)(C1)CC(N)(C3)C2 [Memantine HCl] + CCN1C(=O)N(c2c(F)c(OC)cc(OC)c2F)Cc2cnc3[nH]c(CN4CCOCC4)cc3c21 [pemigatinib] | 1.01 |
| C[N+](C)(C)C[C@H](O)CC(=O)[O-] [L-carnitine] + CCN1C(=O)N(c2c(F)c(OC)cc(OC)c2F)Cc2cnc3[nH]c(CN4CCOCC4)cc3c21 [pemigatinib] | 0.945 |
| C[N+](C)(C)CC(O)CC(=O)[O-] (racemic) [DL-Carnitine HCl] + CCN1C(=O)N(c2c(F)c(OC)cc(OC)c2F)Cc2cnc3[nH]c(CN4CCOCC4)cc3c21 [pemigatinib] | 0.968 |
| CCS(=O)(=O)N1CCN(c2ccc(Nc3ncc(C(N)=O)c(NC4CC4)n3)cc2)CC1 + CCN1C(=O)N(c2c(F)c(OC)cc(OC)c2F)Cc2cnc3[nH]c(CN4CCOCC4)cc3c21 [pemigatinib] | 0.87 |
| Cn1c(N2CCCCS2(=O)=O)nc(C(=O)NCc2ccc(F)cc2)c(O)c1=O + CCN1C(=O)N(c2c(F)c(OC)cc(OC)c2F)Cc2cnc3[nH]c(CN4CCOCC4)cc3c21 [pemigatinib] | 0.948 |
| O=C(c1ccccc1)c1ccc2nc(NC(=O)c3csc(C4CCN(c5ncnc6ccsc56)CC4)n3)[nH]c2c1 + CCN1C(=O)N(c2c(F)c(OC)cc(OC)c2F)Cc2cnc3[nH]c(CN4CCOCC4)cc3c21 [pemigatinib] | 0.96 |
| CC(C)(C)CC(C)(C)c1ccc(OCCOCC[N+](C)(C)Cc2ccccc2)cc1 [Benzethonium Chloride] + CCN1C(=O)N(c2c(F)c(OC)cc(OC)c2F)Cc2cnc3[nH]c(CN4CCOCC4)cc3c21 [pemigatinib] | 0.964 |
| Cn1nnc2c(C(N)=O)ncn2c1=O [Temozolomide] + CCN1C(=O)N(c2c(F)c(OC)cc(OC)c2F)Cc2cnc3[nH]c(CN4CCOCC4)cc3c21 [pemigatinib] | 0.945 |
| O=[N+]([O-])c1cn2c(n1)OC[C@@H](OCc1ccc(OC(F)(F)F)cc1)C2 + CCN1C(=O)N(c2c(F)c(OC)cc(OC)c2F)Cc2cnc3[nH]c(CN4CCOCC4)cc3c21 [pemigatinib] | 1.02 |
| C=C1C(=O)O[C@H]2[C@H]1CC/C(C)=C/CC[C@@]1(C)O[C@@H]21 [(-)-Parthenolide] + CCN1C(=O)N(c2c(F)c(OC)cc(OC)c2F)Cc2cnc3[nH]c(CN4CCOCC4)cc3c21 [pemigatinib] | 0.727 |
| COc1ccc(CCC(=O)Nc2nc3ccc(Cl)cc3s2)cc1OC + CCN1C(=O)N(c2c(F)c(OC)cc(OC)c2F)Cc2cnc3[nH]c(CN4CCOCC4)cc3c21 [pemigatinib] | 0.927 |
| CCCCOc1ccc(C(=O)CCN2CCCCC2)cc1 [Dyclonine HCl] + CCN1C(=O)N(c2c(F)c(OC)cc(OC)c2F)Cc2cnc3[nH]c(CN4CCOCC4)cc3c21 [pemigatinib] | 1 |
| C=C1CC[C@H](O)C/C1=C/C=C1\CCC[C@]2(C)[C@@H]([C@H](C)/C=C/[C@H](C)C(C)C)CC[C@@H]12 [Vitamin D2] + CCN1C(=O)N(c2c(F)c(OC)cc(OC)c2F)Cc2cnc3[nH]c(CN4CCOCC4)cc3c21 [pemigatinib] | 1.01 |
